# From ChEMBL document CHEMBL4888484, “Replenishing the malaria drug discovery pipeline: Screening and hit evaluation of the MMV Hit Generation Library 1 (HGL1) against asexual blood stage Plasmodium falciparum ,using a nano luciferase reporter read-out” (2022)
# The campaign covered roughly 150,000 compounds. About 540 (0.36%) showed an effect of 50% or more. The list shows a part of the results.
# Tested on: Plasmodium falciparum
# Assay: Primary screen in NF54 nanoGlo assay, in single point, at 2uM, 72h; a lower Z score goes with more inhibition
# Format: functional, Erythrocyte
# Settings: timepoint 72 hour
Structure (SMILES),% Inhibition [%],Z score
Cc1ccc2c(c1C)NC(=O)C21NC(CCC(N)=O)[C@H]2C(=O)N(Cc3ccc(F)cc3)C(=O)[C@H]21 (stereo partly drawn),0,-0.01
Cc1nc2c(s1)[C@@H](NCc1ccnc(OCC3CC3)c1)CCC2,-16,1.86
COC(=O)C1CC(Oc2ccc(Cl)cc2)CN1 (stereo not drawn),10,-1.19
Cc1cc2c(cc1CNC(=O)c1ccc(F)cc1)OCCCO2,-4,0.64
O=C(CCC1CCCC1)NCc1ccc(Cn2ccnc2)cc1,-15,2.47
Cc1ccc(-c2nc3ccc(Oc4ccc(N)cc4)cc3nc2-c2ccc(C)cc2)cc1,-2,0.38
O=C(NCCn1ccnc1)NCC1(Cc2ccccc2)CCC1,8,-1
O=C(NCCCO)c1cn2c3c(cccc3c1=O)CCC2,7,-1.03
CN1C(=O)CCC(c2nc(-c3nccc4ccccc34)no2)C1c1cnn(C)c1 (stereo not drawn),3,-0.4
O=C(CN(C[C@H]1CCCO1)C(=O)C1CC=CC1)N1CCCC1,-4,0.41
Cc1noc(C)c1S(=O)(=O)NC[C@H](O)c1ccc(-c2ccsc2)cc1,8,-1.13
COCCCN(CC(=O)N(Cc1cccn1Cc1ccc(Br)cc1)C1CCCCC1)C(=O)N(C)C,-13,2.42
COC(=O)N(C)CC(=O)Nc1cccc(Cl)c1,-5,0.77
C[C@H](O)CCN(C)c1ncc(Br)cn1,-21,2.48
COc1cc(NC(=O)CC#N)cc(OC)c1,-12,1.36
CC1(C)CN(S(=O)(=O)NCC(F)(F)F)C[C@]2(C[C@@H]3CC[C@H]2C3)O1,15,-1.7
CCCN(CC(C)(C)c1ccccc1)C(=O)CNC1CC1,1,-0.24
CCc1ccc(C(=O)N[C@@H](C)c2csc(C)n2)[nH]1,19,-3.32
Cc1noc(C)c1S(=O)(=O)N[C@H]1Cc2ccccc2NC1=O,-8,1.07
CCc1noc(-c2cnc3nc(C)ccc3c2Nc2cccc(C)c2)n1,-4,0.45
Cc1cc(C)n(C)c(=O)c1C(=O)N1CCN(C(=O)[C@@H]2CCCO2)CC1,5,-0.65

Structure (SMILES),% Inhibition [%],Z score
O=C(NCCN1CCC(c2cccs2)CC1)NC1CCOCC1,-5,0.6
NC(=O)CN1CCCN(C(=O)Nc2cccnc2-n2cccn2)CC1,12,-1.85
CO[C@H]1CN(C2CCN(C(=O)CC3CCCCC3)CC2)C12CCOCC2,-8,1.3
O=C(Nc1ccc(F)cc1N1CCOCC1)N1CCCC(F)(F)CC1,0,0.02
Cc1nc(C)c(-c2cccc(-c3ccn(CCCN(C)C)n3)c2)s1,-11,1.23
COc1cccc(-n2c(=O)c3c(C)c(C(=O)N(C)C)sc3n(CC(=O)NC[C@H]3CCCO3)c2=O)c1,9,-1.06
CC(C)NC(=O)[C@@H]1Cc2[nH]cnc2CN1Cc1ccc(Cl)cc1,12,-1.5
Cc1ccc(CCN2C(=O)[C@H]3CCCCN3C2=O)nc1,-24,4.56
O=C(Nc1ccc(F)cc1)Nc1nnc(C2CCCC2)s1,3,-0.36
CC[C@H](NS(=O)(=O)c1ccc(C)c(N(C)C)c1)c1noc(C)n1,-1,0.19
COc1ccc(CN(C)c2ncccc2-c2nc(-c3ccc(C)cc3)no2)cc1,-6,0.99
CC(=O)Oc1c(-c2ccc(NC(=O)c3ccccc3Cl)cc2)c(-c2cccc(C)c2)nn1-c1ccc(F)cc1,-5,0.78
CC(C)c1noc([C@H](C)n2ccnc2-c2cnc(N3CCCC3)nc2)n1,-9,1.33
CC[C@H]1C(=O)NCCN1c1nc(C)cc(N)n1,-4,0.76
CC(C)Cc1nc(C(=O)N2CCC[C@@]23CCOC3=O)cs1,-14,2.8
CC(C)Cn1cnnc1[C@@H]1CCCN1CCC(=O)N1CCOCC1,-6,1.2
CN(CCC(=O)O)Cc1ccccc1C1CC1,-2,0.39
CNC(=O)c1noc(CNC(=O)Cc2c(F)ccc(F)c2F)n1,8,-1.17
Cc1cc(NC(=O)CN(C)[C@@H](C)c2sc(C)nc2C)n(C)n1,8,-1.39
Cc1ccc(NS(=O)(=O)c2cc(-c3nnc(C(=O)N4CCCC4)o3)sc2C)cc1C,-10,1.45
CCON1CCC(CC(=O)N(C)CCN(C)C2CC2)CC1,-11,2.02

Structure (SMILES),% Inhibition [%],Z score
COCC1(CNC(=O)C[C@H](C)n2ccnc2C)CCC1,-4,0.67
O=c1[nH][nH]c2nc(O)cc(C(F)(F)F)c12,-5,0.55
O=C1NCCOCCN(S(=O)(=O)c2ccccc2)[C@@H]2CCCC[C@H]12,5,-0.95
Cc1nnnn1CCn1nc2ccccn2c1=O,-9,1.14
c1cc(-c2csc(C3CC3)n2)cc(-c2noc(-c3cnccn3)n2)c1,-12,1.41
Cc1ccc(-c2noc(C3CC3)n2)cc1-n1cc(C(=O)NCc2ccccc2Cl)c(C)n1,-2,0.26
CC[C@H](NCc1c(C)noc1C)c1c(C)noc1C,15,-1.73
CCCC[C@H]1CN(c2ccccc2OC)C(=O)CN1C(=O)c1cc(C)n[nH]1,-1,0.18
Cc1ncsc1C(=O)N1CC[C@H](Oc2ncccn2)C1,-14,2.67
C[C@@H](C1CC1)N(C(=O)COc1c(C#N)oc2ccccc12)C1CC1,-8,1.53
O=C(NCc1cccc(Br)c1)c1ccc(Cl)c(-n2cnc3cccnc32)c1,34,-0.68
COC1(CO)CCN(Cc2cnn(CCF)c2)CC1,-10,1.7
NC(=NCCOc1ccc(Br)cc1)N1CCOCC1,36,-4.82
c1cncc(-c2nc3c(c(N4CCc5cncnc5C4)n2)CCC3)c1,-3,0.42
CCC[C@H](C)NC(=O)c1ccccc1F,-3,0.32
Cc1ccccc1[C@H]1CN(C(=O)C2CCOCC2)C[C@@H]1C(=O)O,-3,0.39
O=C1CC(C2CCCCN2C(=O)N2CCOCC2)CN1 (stereo not drawn),3,-0.62
O=C(NC1CC1)[C@H]1CCCN(C(=O)c2cnc3ccccc3n2)C1,-34,3.95
O=C(NC1(Cc2ccc(Cl)cc2)CC1)N1C[C@H]2CC[C@@H](C1)NC2,8,-1.11
COc1cccc(NC(=O)C2[C@@H]3C=C[C@]4(O3)C(C(=O)NC3CCCCC3C)N(Cc3ccc(F)cc3)C(=O)[C@H]24)c1 (stereo partly drawn),1,-0.09
Cc1cccc(Cl)c1NC(=O)N1CCS(=O)(=O)[C@@H](C)C1,-5,0.54

Structure (SMILES),% Inhibition [%],Z score
CN1C[C@@H]2CC[C@H]1CN(Cc1ccc(S(C)(=O)=O)cc1)C2,7,-1.57
O=C(NCc1ccncc1)[C@H]1CCCN(c2nnc3c(Cl)cccn23)C1,-13,1.43
CCCCN(C)S(=O)(=O)N1CCCCC1C(O)CC (stereo not drawn),-2,0.33
Cc1cc(NC(=O)c2ccccn2)n(-c2nc3ccccc3o2)n1,89,-10.15
Cc1ccc(CC[C@H](C)NC(=O)N2CC(=O)N(C3CC3)C2)o1,-14,1.22
O=C(c1ccco1)N1CCc2c(c(CO)nn2Cc2ccccc2)C1,-12,1.58
CN(C)Cc1ccc(-c2nc(N)nc3[nH]cnc23)cc1,-2,0.23
CC(C)(C)C[C@H](NC(=O)N1CCC(C#N)CC1)C(F)(F)F,-4,0.43
CC1Cc2cc(F)ccc2C(C)N1Cc1cccc(C(=O)N(C)C)c1 (stereo not drawn),-12,1.68
Cc1ccc(NC(=O)N2Cc3nc[nH]c3C[C@H]2c2nc(-c3ccc(Cl)cc3)no2)cc1,33,-3.74
C[C@H](NC(=O)CCc1nc2c([nH]1)c(=O)[nH]c(=O)n2C)C(C)(C)C,1,-0.11
Cc1oc(-c2ccccc2)nc1CN1CCC(O)(Cc2ccncc2)CC1,-14,1.85
Cc1nc2c(s1)CCC[C@@H]2NC(=O)c1ccc(CCC(C)(C)O)cc1,-12,2.13
Cc1ccc(S(=O)(=O)Cc2cccc(-c3nc(-c4ccc(N5CCOCC5)cc4)no3)c2)cc1,-11,1.48
CC(=O)NC1CCC(NC2CCC(C(F)(F)F)CC2)CC1 (stereo not drawn),-3,0.63
O=C1CN(C(=O)c2ccc(-c3ccccc3)[nH]c2=O)CCN1,-1,0.1
O=C(CCc1ccc(S(=O)(=O)N2CCCC2)cc1)Nc1ccc2c(c1)OCCCO2,-7,1.07
Cc1ccnc(Nc2ccc(N3CCNCC3)nn2)c1,56,-6.55
O=C(N1CCCC1)N1CC[C@]2(O)CCN(c3nccc(C4CCCC4)n3)C[C@@H]2C1,-15,2.26
O=C(NCCC(c1ccccc1)c1ccccc1)c1ccc(S(=O)(=O)N2CCOCC2)cc1,3,-0.3
O=C(NC1CC(O)C(CO)C1)c1cc(-c2ccccc2)n[nH]1 (stereo not drawn),-13,2.09
